Test results: paper PMC7819943, “Rice protein-binding microarrays: a tool to detect cis-acting elements near promoter regions in rice”
The list shows a part of the results.

What follows are sequences tested against T1, OsWOX13 (Oryza sativa, UniProt Q5QMM3 1-267) (assay: protein-binding microarray (RPBM); PBS, 2% BSA, 51.3 ng/ul salmon testes DNA, 50 uM zinc acetate, 200 nM TF, 25 C, 1 h; high values mean tight binding). Conditions: protein: recombinant; tags: N-terminal polyhistidine and DsRed monomer fusion (pET32a); label: CyDye5-dUTP incorporated in the synthesized complementary strand; 3' TTTTT single-stranded linker to array surface; dsDNA, one strand shown.
T1 sequence: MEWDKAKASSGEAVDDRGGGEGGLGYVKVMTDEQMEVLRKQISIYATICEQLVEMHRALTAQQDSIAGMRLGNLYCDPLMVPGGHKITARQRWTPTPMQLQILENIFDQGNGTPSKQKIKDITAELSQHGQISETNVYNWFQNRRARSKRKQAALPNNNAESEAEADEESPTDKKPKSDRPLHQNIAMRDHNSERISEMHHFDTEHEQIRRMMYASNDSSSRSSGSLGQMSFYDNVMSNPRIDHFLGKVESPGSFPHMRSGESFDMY
Summary of the method: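 Binding signal here means per-feature fluorescence intensity in arbitrary units. The values were read on an Axon 4000B scanner after a custom Agilent array, double-stranded by primer extension with Cy5-dUTP, was incubated with 200 nM protein at 25 °C for 1 h in PBS with 2% BSA, salmon testes DNA and 50 µM zinc acetate, then washed. The proteins were transcription factors with an N-terminal polyhistidine tag and DsRed, expressed in E. coli BL21-CodonPlus and purified on Ni–NTA.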

Sequence | binding signal
TATACATATCCAATTAATTAATACAAGGATGTAGGGCTCTCGGAGTCACCTAGTGCAG | 15800 fluorescence intensity (a.u.)
CGCCTAATATTAATTGCATCTTATTGCTGTCTTTTGTATTCGGAGTCACCTAGTGCAG | 15700 fluorescence intensity (a.u.)
CCTGATTTCACTGGATGCCATGATTTACAATATATGTGAGCGGAGTCACCTAGTGCAG | 28800 fluorescence intensity (a.u.)
GGGTGGGATTGGGATTGGGAAATGAATGAAGGGTTAGGATCGGAGTCACCTAGTGCAG | 24300 fluorescence intensity (a.u.)
GTAGGGATTGGTTGATATATATAAGAATGCAAATGAAGTTCGGAGTCACCTAGTGCAG | 5080 fluorescence intensity (a.u.)
TTTGATGATTCTCATTAGGTATTTCCCCACAGATAACAGACGGAGTCACCTAGTGCAG | 3560 fluorescence intensity (a.u.)
ATCCAATCAATAATGAGCGATGCGATGAATGATGCATTGTCGGAGTCACCTAGTGCAG | 31300 fluorescence intensity (a.u.)
CTCTCATAATTAATCCATCGCTTCGAAAACGATTATCGGTCGGAGTCACCTAGTGCAG | 7270 fluorescence intensity (a.u.)
AGAGATGATGTGACTGAAAAGTTGTGTGTGTATGATAGGTCGGAGTCACCTAGTGCAG | 6250 fluorescence intensity (a.u.)
AAATTTTGAATTGTTTGAAATTGACTCCTAAACACATTGACGGAGTCACCTAGTGCAG | 3840 fluorescence intensity (a.u.)
GTGATGGAATTTACACCTATTGTCTTATTCAGGTTTTGATCGGAGTCACCTAGTGCAG | 3540 fluorescence intensity (a.u.)
CGGAATTGAATTTTGGTTGAAACATTGTTTCCAATACGCACGGAGTCACCTAGTGCAG | 16900 fluorescence intensity (a.u.)
AAAAGATTGAGAAATCATTCTTTTAGTACAGGTCATACCTCGGAGTCACCTAGTGCAG | 23700 fluorescence intensity (a.u.)
ACATCAATCTTGAAAATCACGATGAACATGACGTGGATTTCGGAGTCACCTAGTGCAG | 19700 fluorescence intensity (a.u.)
CGAAATGGGAGGCGGGGTTTAGGGTTTCCGGCGGGGAGGGCGGAGTCACCTAGTGCAG | 5390 fluorescence intensity (a.u.)
GAGATAAATGATCAACTAGTCCGTGAATTTGACACCGATGCGGAGTCACCTAGTGCAG | 7110 fluorescence intensity (a.u.)
GATTATTGATTTATCTTTCAATTAATTAAGCACCTTGGTACGGAGTCACCTAGTGCAG | 45200 fluorescence intensity (a.u.)
TAATGAAATATAATTGGCAGTTCTCCTGTCGGTTTAGTTTCGGAGTCACCTAGTGCAG | 6930 fluorescence intensity (a.u.)
TGCAATTTATTCCATTATGCTGAATTAAACATAGAAACGCCGGAGTCACCTAGTGCAG | 4340 fluorescence intensity (a.u.)
ATTTTAATTAGCTAACACCATTGCGGTGGTACTATTCCAACGGAGTCACCTAGTGCAG | 19700 fluorescence intensity (a.u.)
TTGCAATTAAGTTGATTGTTATTAAAAGACTAGGATGTTACGGAGTCACCTAGTGCAG | 14100 fluorescence intensity (a.u.)

Sequence | binding signal
TCTAATCACTGTATTAGTAAATTACTGATATACCCTTAATCGGAGTCACCTAGTGCAG | 10200 fluorescence intensity (a.u.)
TTATTGGACGTTGATTTGTATAATTCAATAAATTATAGATCGGAGTCACCTAGTGCAG | 9040 fluorescence intensity (a.u.)
CATGCCTAAATTTAATTATGTAATATTGCTTTCATCTGTACGGAGTCACCTAGTGCAG | 11600 fluorescence intensity (a.u.)
TAAAATTAACGTGGACACTAATCTAGTTTAGACTTTGATTCGGAGTCACCTAGTGCAG | 15500 fluorescence intensity (a.u.)
CGTATGAACAAATTTGCATCCATTATCTTTGCCTGCACACCGGAGTCACCTAGTGCAG | 3860 fluorescence intensity (a.u.)
ACTAATTATTGTTTATTGGGATCAAAGTGCCCGCACTATCCGGAGTCACCTAGTGCAG | 30700 fluorescence intensity (a.u.)
TTTAACTGCCAATTTGCCTGAATGATTTGCAGATGAGGAACGGAGTCACCTAGTGCAG | 41700 fluorescence intensity (a.u.)
TTAATCAGAATTATCGTCTGTCAAGATAATATATTATAAGCGGAGTCACCTAGTGCAG | 3430 fluorescence intensity (a.u.)
TATGACAGGTGGGATTAGGTATTAATAGTGTAGTATGTAACGGAGTCACCTAGTGCAG | 8510 fluorescence intensity (a.u.)
GGCGACAAGACAGATAGACAGAAGCCATTCATATCGAACCCGGAGTCACCTAGTGCAG | 5190 fluorescence intensity (a.u.)
CGCAACAAAGCAATCAAATACTACTACGCGATATGAGAGACGGAGTCACCTAGTGCAG | 3460 fluorescence intensity (a.u.)
ATAACCGCCCTAATTTACTTTAGCATACGTGGAGTACAAGCGGAGTCACCTAGTGCAG | 3710 fluorescence intensity (a.u.)
ATTTGTATAATTGGAACCATGCCATTCCAACACAACAAAACGGAGTCACCTAGTGCAG | 6320 fluorescence intensity (a.u.)
CTTGGCATTGATTGTAAGCTGGTATCGAACTCTTCAGTAACGGAGTCACCTAGTGCAG | 16200 fluorescence intensity (a.u.)
ATATTTTGTAAATTATAATAACTATTTATGTGTCCTCTCACGGAGTCACCTAGTGCAG | 4080 fluorescence intensity (a.u.)
CATTGTGTGAAATTATTGTAATTGTAGAATAAGAGAATCACGGAGTCACCTAGTGCAG | 3330 fluorescence intensity (a.u.)
CCTTCCTAAATTATCTGGCGATATATTGTGCGCACTGACTCGGAGTCACCTAGTGCAG | 4880 fluorescence intensity (a.u.)
TAGCTTAATTAATTGGTATGCAATCCATGCCTCTCTGCAGCGGAGTCACCTAGTGCAG | 40800 fluorescence intensity (a.u.)
GGTATGCATTGGAAACTTTTGATTGAGAGCACTGTTGCCTCGGAGTCACCTAGTGCAG | 9620 fluorescence intensity (a.u.)
ATGCGTGATTACGTACAGGAGGGAGATTCGTACGTACGCGCGGAGTCACCTAGTGCAG | 12200 fluorescence intensity (a.u.)
ATATAGATTTACGTTGGATTTATACTGATTCTAACCAAATCGGAGTCACCTAGTGCAG | 13600 fluorescence intensity (a.u.)

Sequence | binding signal
CGCGTAATTTGGCTATAAATCCGCCGCGGATTTCCTTCCTCGGAGTCACCTAGTGCAG | 15100 fluorescence intensity (a.u.)
ATTGATCTAATTGAAGTTGCTTGGACTTATGAACAACTTTCGGAGTCACCTAGTGCAG | 20100 fluorescence intensity (a.u.)
GGCTAAATTTTGCCCCAGCATTGACAAGTGACAACTCCCCCGGAGTCACCTAGTGCAG | 6210 fluorescence intensity (a.u.)
GGGTGCAATTAATTAATCATCTATCTATATTTTGCTCAAACGGAGTCACCTAGTGCAG | 29500 fluorescence intensity (a.u.)
CTAATTACACAGATTGTGACTAATTTGTGAGACGAATCTTCGGAGTCACCTAGTGCAG | 37900 fluorescence intensity (a.u.)
GATCAAATTAATAGGTAACCCGCTGGTCAAACCTATGGGTCGGAGTCACCTAGTGCAG | 18000 fluorescence intensity (a.u.)
AGCGTGACTGCAATTTAAAACGATTAAAATAACATTCAACCGGAGTCACCTAGTGCAG | 11800 fluorescence intensity (a.u.)
GCAATTAACTCACTCTGCTTTAGCTGATTAAGTTGGTCGTCGGAGTCACCTAGTGCAG | 5290 fluorescence intensity (a.u.)
GCCATTGACAGCGTTGACCAAGTCAGCCGCTCCAGCCTCTCGGAGTCACCTAGTGCAG | 5360 fluorescence intensity (a.u.)
AATCGACTGATGGATTAAAATTTGGGATCACCTGTATATTCGGAGTCACCTAGTGCAG | 8420 fluorescence intensity (a.u.)
TAATCGTTACAAATTTCAGTGATTGCCCTGAGCGTATTAACGGAGTCACCTAGTGCAG | 6610 fluorescence intensity (a.u.)
ATTTCCCAATTAATGAGTCTTAGTCCATGGGTATAGACAACGGAGTCACCTAGTGCAG | 5860 fluorescence intensity (a.u.)
AAAATGATAGGATTTTCACATATTTACTCTCTTAAATCTGCGGAGTCACCTAGTGCAG | 5010 fluorescence intensity (a.u.)
GCTGTCTTGCTGATTGATATGCATACGGCGCCGGAGATGACGGAGTCACCTAGTGCAG | 14200 fluorescence intensity (a.u.)
TGCTTTTCATGTTTATTGATTTAGGCGCACCTGTTCTGTTCGGAGTCACCTAGTGCAG | 3190 fluorescence intensity (a.u.)
TTAAATGTTGACGTTTGATGAGACAAGTAGTACTATATAGCGGAGTCACCTAGTGCAG | 3900 fluorescence intensity (a.u.)
ATAAATTAACTCCACACCTCCTCCTTTATCTTCAAATCTCCGGAGTCACCTAGTGCAG | 7860 fluorescence intensity (a.u.)
GGTGAAATGAAGGGATAATTAATTGAGAGAAAATTAAGCACGGAGTCACCTAGTGCAG | 21300 fluorescence intensity (a.u.)
TCTTAATGACATAGGGGTAAAAGACTCTAATAAATTTGTCCGGAGTCACCTAGTGCAG | 6870 fluorescence intensity (a.u.)
CCCAGTCTATCCATCCAATTAACCAACTTAACGACCATTGCGGAGTCACCTAGTGCAG | 12100 fluorescence intensity (a.u.)
CTGTAGATGAAAATCAAATTGAGACACCTAAAGTGAACCTCGGAGTCACCTAGTGCAG | 4470 fluorescence intensity (a.u.)

Sequence | binding signal
TATAAACAATTAACCTATATATCTAAGTGCTGATTTAACCCGGAGTCACCTAGTGCAG | 3960 fluorescence intensity (a.u.)
AAAGATTAAAGTTTAGTCCATAAATGCAAACATTGACACCCGGAGTCACCTAGTGCAG | 3880 fluorescence intensity (a.u.)
CACCAATTAACTTAGCCACTTATGATTCACAAAGATAAGACGGAGTCACCTAGTGCAG | 8860 fluorescence intensity (a.u.)
ATAATTGTTCAGATTACAGTAATGCTGCAATAAACACTTACGGAGTCACCTAGTGCAG | 9090 fluorescence intensity (a.u.)
CAAAACAACATAATTGAGCATCCGGCTGCATGCATCGGTCCGGAGTCACCTAGTGCAG | 13500 fluorescence intensity (a.u.)
AGCAAAATGATTGCCAGATGACAAGATGCCAATGAAAATGCGGAGTCACCTAGTGCAG | 26700 fluorescence intensity (a.u.)
GAAATTGCCAAATGGACAGGTTTGGCTGAATTGGATCTGTCGGAGTCACCTAGTGCAG | 7770 fluorescence intensity (a.u.)
CAACATTGGCAAGTTAATTGATCGCAGATCGTTTTATCACCGGAGTCACCTAGTGCAG | 23000 fluorescence intensity (a.u.)
GCACCCATGCTGATTAGCCGCTGCTTAGCAATTGATTATGCGGAGTCACCTAGTGCAG | 5910 fluorescence intensity (a.u.)
CCCCTATTTTGTTACCTCATTATTCTCGTATTCCCCTTTTCGGAGTCACCTAGTGCAG | 3830 fluorescence intensity (a.u.)
CTGGGGATTGGCTGAGGACGGCGAGGGGAGCGGGAGTGGCCGGAGTCACCTAGTGCAG | 9980 fluorescence intensity (a.u.)
ATATCAAATATCAAATCAATGGTCTTTAAACATTCATCTTCGGAGTCACCTAGTGCAG | 3160 fluorescence intensity (a.u.)
TTAAAATTAAGCGCATTAATCATTCGTTTGTTTTGCTTGCCGGAGTCACCTAGTGCAG | 8230 fluorescence intensity (a.u.)
ATAGATTGCGTGTTTAATGGATTTATTGTCTCTATTACTTCGGAGTCACCTAGTGCAG | 19800 fluorescence intensity (a.u.)
ATGACAAACTGGTTTTGGGGCCAAAATGTTATCGATTGCTCGGAGTCACCTAGTGCAG | 3570 fluorescence intensity (a.u.)
GCTAATTTGCGATGCTTCACATGCAGGCCAACCCTGACACCGGAGTCACCTAGTGCAG | 14700 fluorescence intensity (a.u.)
GTTTTATTTTAGACACCAATCATGCTATAGATTAGGGCCTCGGAGTCACCTAGTGCAG | 12400 fluorescence intensity (a.u.)
AGTAATAACTGGGCCAAATTTTAGTGGCAGTAATATTTTGCGGAGTCACCTAGTGCAG | 5680 fluorescence intensity (a.u.)
CATGATTGTCACTTACCTTGCCTTCCTCAATCTTGGGATTCGGAGTCACCTAGTGCAG | 48500 fluorescence intensity (a.u.)
ATTAGATTGAAAATATCTCAAAATTAAGTTTGAAAATTTACGGAGTCACCTAGTGCAG | 12900 fluorescence intensity (a.u.)
GGTTAATTTCCCTCATGAGTATATGCCTGAAATTTTGGATCGGAGTCACCTAGTGCAG | 20200 fluorescence intensity (a.u.)
